Results published in PubChem BioAssay AID493208 (National Center for Advancing Translational Sciences (NCATS), 2011).
Screen size: about 44,000 compounds; about 340 (0.77%) were called active. Another 5% or so got no clear call; they are omitted. The call rests on the fitted dose curve; in most records, active means well fitted inhibition curve with a large enough effect; inconclusive means small, poorly fitted or top-dose-only effect; inactive means flat fitted curve, though single readings scatter. Some of the results follow.

Experiment: Acumen qHTS Assay for Inhibitors of the mTORC1 Signaling Pathway in MEF (Tsc2-/-, p53-/-) Cells: Sytravon;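 further: plate controls were DMSO for no effect and rapamycin for full effect; nearly all actives have a fitted effect of over 50% in size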
Details: phospho-rpS6 immunofluorescence/PI, 24 h; series mostly up to 38.3 µM; activity change, negative = inhibition: at the top concentration
Summary of the method: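 Tsc2-/-, p53-/- mouse embryonic fibroblasts (empty-vector line) exposed to compound 24 hrs at 37 C, fixed, immunostained for phospho-rpS6 and counterstained with propidium iodide. Acumen laser scanning gives % positive cells from Alexa 488/PI ratio, thresholded using 7.5 nM rapamycin; PI count gives viability.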

Activity change, negative = inhibition, inactive:
Cc1nc2ncnn2c(C)c1CCC(=O)N1CCN(c2cccc(Cl)c2)CC1 0.213%
CC1CCC2(CC1)N=C(c1ccccc1)C(=O)N2CC(=O)Nc1ccc(F)c(Cl)c1 (stereo not given) -18.7%
CCc1ccc(NC(=O)c2nnn(Cc3cccc(C(F)(F)F)c3)c2N)cc1 -3.31%
COc1cccc(CNC(=O)COCc2cc(-c3ccc4c(c3)OCO4)on2)c1 -1.53%
COc1cccc(CNC(=O)c2ccc3c(c2)nc2n3CCCCC2)c1OC 1.9%
CCc1ccc(NC(=O)C2=CC(c3ccc4c(c3)OCO4)=NS(=O)(=O)N2C)cc1 -11.7%
COc1ccc(NC(=O)Nc2c[nH]c(=O)[nH]c2=O)c(OC)c1 -2.98%
CCOc1ccc(-c2nc(SCC(=O)NCCCOC)c(-c3ccccc3)[nH]2)cc1 -0.312%
CCn1c(CN2CCOCC2)nc2cc(NC(=O)c3ccc([N+](=O)[O-])cc3)ccc21 -4.32%
COc1ccccc1CNC(=O)CSc1ncc2c(n1)-c1cc(Cl)ccc1N(Cc1ccccc1)S2(=O)=O -1.31%
Cc1c(C(=O)N(Cc2ccc(Cl)cc2)CC2CCCO2)oc2ccc(F)cc12 (stereo not given) -7.92%
CSc1ccc(CC2C(=O)Nc3ccccc32)cc1 (stereo not given) 0.0686%
O=C(Cc1ccccc1F)N1CCC(c2nc3c(nnn3Cc3ccc(F)cc3)c(=O)[nH]2)CC1 4.74%
O=C(CS(=O)(=O)c1cccc2nsnc12)Nc1cc(F)ccc1F 2.9%
CCc1ccccc1NC(=O)C1COc2ccccc2C1 (stereo not given) 0.424%
Cn1cnc(S(=O)(=O)N2CCC(C(=O)N3CCN(c4ccc(Cl)cc4)CC3)CC2)c1 8%
N#C/C(=C\c1ccccc1)C(=O)Nc1sc2c(c1C(N)=O)CCC2 -3.27%
CC(C)Oc1ccc(CNC(=O)c2cnc3sc(N4CCCCC4)nn3c2=O)cc1 0.515%
COc1cccc(C2C(C(=O)Nc3ccccc3)=C(C)Nc3nnnn32)c1OC (stereo not given) 3.91%
COc1cc2c(-c3ccc(C)cc3)nc3c(c(C)nn3-c3ccccc3)c2cc1OC 3.13%
Cc1cc(C)cc(OCC(=O)Nc2ccc(Cl)c(-c3nc4ncccc4o3)c2)c1 -6.77%
N#Cc1ccc(OC(=O)c2cc(-c3ccc4c(c3)OCCO4)on2)cc1 -1.5%
CCc1ccc(Sc2cc(C(=O)NCCCOC(C)C)c3ccccc3n2)cc1 6.33%
CC(=O)Nc1ccc(-n2c(CCC(=O)O)ccc2-c2ccc(C)cc2)cc1 1.37%
CCOC(=O)c1oc2ccc(S(=O)(=O)n3nc(-c4cc(OC)cc(OC)c4)cc3N)cc2c1C -10.3%
Cc1ccc(NC(=O)CSc2nc3c(oc4ccccc43)c(=O)n2Cc2ccco2)cc1 -2.94%
CCCn1c(=O)c2sccc2n2c(CCCC(=O)N3CCN(c4cccc(C)c4C)CC3)nnc12 3.45%
CC(=O)N(Cc1cccnc1)c1nc2c(C)cccc2s1 2.02%
Cn1cc(-c2cc3n(n2)CCC(=O)N3CCCC(=O)Nc2ccc(F)cc2F)c2ccccc21 6.96%
Cc1cc(C)cc(-n2ccnc2SCC(=O)Nc2ccc3c(c2)OCO3)c1 -6.95%
Cc1cc2nc(-c3ccc(Br)cc3)cc(C(F)(F)F)n2n1 -0.903%
CCOC(=O)C1CCN(C(=O)Cn2nc(C)n3c(cc4cc(C)ccc43)c2=O)CC1 -4.75%
COc1ccc(CCn2c(=O)c3cccnc3n(CC(=O)Nc3cccc(C)c3)c2=O)cc1OC -4.93%
COc1ccc(S(=O)(=O)NCc2ccc3c(c2)CCN3C(=O)c2ccc(C)cc2)cc1Cl 0%
CCc1ccc(-c2cn3c(n2)sc2cc(C(=O)NCC(C)c4ccccc4)ccc23)cc1 (stereo not given) 5.53%
CCc1ccc(N2CCn3c2nc2c3c(=O)n(Cc3c(F)cccc3Cl)c(=O)n2C)cc1 -0.505%
Cc1nnc2c(N3CCN(c4ccccc4)CC3)nc3ccc(C(=O)c4ccccc4)cc3n12 5.18%
Cc1ccc2nc(NS(=O)(=O)c3ccc(Cl)cc3)c(Nc3ccc(C(=O)O)cc3)nc2c1 14.5%
O=C(C1CC1)N1CCc2cc(Br)cc(S(=O)(=O)N3CCN(c4ccccc4)CC3)c21 2.71%
CCc1ccc(NS(=O)(=O)c2ccc(C(=O)N(C)C)s2)cc1 0%
Cn1c(=O)c2sccc2n2c(CCC(=O)N3CCN(c4cccc(Cl)c4)CC3)nnc12 6.36%
Cc1c(CNCCc2ccc(S(N)(=O)=O)cc2)c(C(=O)O)c(C)n1Cc1ccc(Cl)cc1 -8.45%
CCCCC(=O)Nc1nnc(S(=O)(=O)N(CC)c2cc(C)cc(C)c2)s1 5.02%
CCOc1ccc(/C=C(\C#N)C(=O)Nc2sc3c(c2C(=O)OC)C(C(=O)OC)CC3)cc1OC (stereo not given) -7.11%
CN(C(=O)CSc1nc2ccccc2n1CC(=O)N(C)c1ccc(F)cc1)c1ccccc1 0%
COc1cc(NC(=O)c2cc(-c3ccc(Cl)c(Cl)c3)on2)cc(OC)c1OC -17.1%
O=C(CSc1nccn1Cc1ccc(F)cc1)Nc1ccc2c(c1)OCO2 2.24%
Cc1ccc(CNC(=O)CN2C(=O)C3(SCC(=O)N3c3cc(C)cc(C)c3)c3ccccc32)cc1 (stereo not given) 2.99%
COc1ccc(N2CCN(C(=O)C3CCN(S(=O)(=O)Cc4ccccc4)CC3)CC2)cc1 3.39%
COc1ccc(CNCCSc2nnnn2-c2ccccc2)c(OC)c1 -13.6%
CCN(c1ccccc1)S(=O)(=O)c1ccc(F)c(C(=O)Nc2ccc(C)cc2)c1 -24.2%
Cc1nc(-c2cccc(F)c2)sc1CCNC(=O)c1ccc(F)c(F)c1 -3.08%
CCOc1ccc(Nc2oc(-c3ccc(COc4ccccc4C)o3)nc2C#N)cc1 -16.4%
Cc1ccc(Nc2nnc(-c3ccc(C)c(S(=O)(=O)N4CCCCC4)c3)c3ccccc23)cc1 -1.69%
CCOc1ccc2c(c1)[C@@H]1C=CC[C@@H]1[C@H](c1ccccc1Cl)N2 -0.318%
Cc1ccc(CNC(C)c2ccccc2)s1 (stereo not given) -6.07%
CC(C)(C)OC(=O)N1CCC(c2c(C(=O)Nc3ccc4c(c3)OCCO4)cnn2-c2ccc(F)cc2)CC1 -9.17%
Cc1cccc(-c2nc3c(cnn3-c3ccccc3)c(=O)n2-c2cccc(Cl)c2)c1 -13.5%
O=C(NCCc1ccccc1)c1ccc2c(c1)N(Cc1ccccc1)C(=O)c1ccccc1S2=O (stereo not given) -12.1%
CN(C)c1ccc(CNC(=O)c2cc3ccccn3n2)cc1 -2.31%
Cc1cc(C)cc(NC(=O)CSc2nnc(COc3ccccc3Cl)o2)c1 -0.892%
Cc1ccc(C)c(NC(=O)CCCN2C(=O)COc3ccc(C)cc32)c1 -5.11%
CCN(CC)S(=O)(=O)c1ccc2c(c1)c(=O)c(C(=O)N(C)Cc1ccccc1)cn2C -1%
Cn1cnc2c(=O)oc3ccc(S(=O)(=O)N4CCN(c5ccccc5)CC4)cc3c21 0.212%
CC(C)(C)OC(=O)N1CCC(c2c(C(=O)Nc3cccc(C(F)(F)F)c3)cnn2-c2ccc(F)cc2F)CC1 0.387%
CC(=O)Nc1cc(C(=O)NCc2ccc(F)cc2)ccc1Sc1ccc(C)cc1 6.31%
COc1ccc(C)cc1NC(=O)c1cc2c(s1)-c1ccccc1SC2 -1.13%
CCOC(=O)CC(NC(=O)Cn1nnc(-c2ccc(C(F)(F)F)cc2)n1)c1ccccc1Cl (stereo not given) -13.4%
Cc1nn(-c2ccccc2)c(-n2cccc2)c1C(=O)NCc1ccccc1Cl -5.49%
CC1CCN(S(=O)(=O)c2ccc3ncn(CC(=O)Nc4ccccc4C(F)(F)F)c(=O)c3c2)CC1 3.05%
Cc1cc(OCC(=O)Nc2cnn(CCCC(=O)O)c2)ccc1Cl 0.864%
CCOC(=O)C1CCN(C(=O)CSc2n[nH]c(-c3ccccc3Cl)n2)CC1 -15.3%
CN(C)c1ccc(C(CNC(=O)Cc2ccc(Cl)cc2)N2CCOCC2)cc1 (stereo not given) 2.45%
CCOc1ccc(CNC(=O)CN2C(=O)CCn3nc(-c4cn(C)c5ccccc45)cc32)cc1OC 6.34%
CCCn1c2ccccc2c2cnn(CC(=O)Nc3cccc(C(=O)OCC)c3)c(=O)c21 -12.2%
CCOc1ccc(NC(=O)CSc2cc(C)c3ccccc3n2)cc1 -2.14%
O=C(NCc1cccs1)c1nn(-c2ccccc2)nc1CO -2.33%
Cc1ccc(NC(=O)Cn2c(=O)n(-c3ccc(C)cc3)c(=O)c3ccc(C(=O)NCc4ccccc4Cl)cc32)cc1 -9.29%
COc1ccc(CCNC(=O)Cc2c(C)c3c(cc(C)c4c(C)c(C)oc43)oc2=O)cc1OC 3.29%
CC(=O)Nc1nonc1-c1nnc(SCc2ccc(F)cc2Cl)n1C -8.49%
Cc1cc(C)cc(NC(=O)c2sc3nc(-c4ccccc4)cn3c2C)c1 -8.54%
COc1ccc(NC(=O)c2cc(-c3ccc4c(c3)OCO4)on2)c(OC)c1 -22.2%
CCOC(=O)c1cccc(NC(=O)CCS(=O)(=O)c2ccc(Br)s2)c1 -7.52%
Cc1ccc(NC(=O)CN2Cc3ccccc3C2=O)c(C)c1 -6.34%
Cn1c(=O)c2c(nc(SCC(=O)Nc3ccc(F)cc3F)n2Cc2ccccc2)n(C)c1=O -15.4%
Cc1c(C)n(Cc2ccc(F)cc2)c2ccc(C(=O)N3CCN(c4ccc(Cl)cc4)CC3)cc12 0.621%
CC1(C(=O)NC2CCCCC2)Cc2ccccc2C(=O)N1Cc1ccc(Cl)cc1 (stereo not given) -11%
COc1cccc(C2C(C(=O)Nc3ccc(Cl)cc3)=C(C)Nc3c(C(=O)Nc4ccccc4)cnn32)c1OC (stereo not given) -17.8%
CCOC(=O)C1CCN(c2cc3c(cc2NC(=O)c2ccc(OC)c(OC)c2)n(C)c(=O)n3C)CC1 -17.1%
CC1CCCCN1S(=O)(=O)c1ccc(F)c(C(=O)Nc2ccccc2C(F)(F)F)c1 (stereo not given) 6.95%
CCC(C)NC(=O)Cn1c(=O)n(CCCC(=O)NCc2ccc(C)cc2)c(=O)c2ccccc21 (stereo not given) -2.63%
Cc1cn2c(=O)cc(COc3cc(C)c(Cl)c(C)c3)nc2s1 -0.409%
CCOc1ccc(NC(=O)CN(c2ccccc2OCC)S(=O)(=O)c2ccccc2)cc1 19.9%
CCOc1cc2sc(N3CCC(C(=O)Nc4ccc(C(C)C)cc4)CC3)nc2cc1Br -4.23%
Cc1cc(=O)n(Cc2cccc(Br)c2)c2c1c(C)nn2-c1ccccc1 -13.8%
